Screen size: about 50,000 compounds; about 800 (1.6%) showed an effect of 50% or more. The list shows a part of the results.

The target of the assay is Bcl-2-like protein 10 (Homo sapiens) (UniProt Q9HD36). As to the kind of experiment: Phenotype converters, Bcl-B/TR3 peptide binding displacement, primary biochemical FP (AID 1240).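 Further: 0% = Bcl-B with tracer peptide and DMSO and 100% = tracer peptide lacking Bcl-B.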 Conditions: GST-Bcl-B / FITC-TR3 peptide fluorescence polarization; stronger effect = higher value; compound at 3.75 mg/L. On the technique in general: In fluorescence polarisation assays a small probe gives low polarisation when free and higher when bound to something large.
Chain of UniProt Q9HD36 (Q9HD36 whole entry, looked up): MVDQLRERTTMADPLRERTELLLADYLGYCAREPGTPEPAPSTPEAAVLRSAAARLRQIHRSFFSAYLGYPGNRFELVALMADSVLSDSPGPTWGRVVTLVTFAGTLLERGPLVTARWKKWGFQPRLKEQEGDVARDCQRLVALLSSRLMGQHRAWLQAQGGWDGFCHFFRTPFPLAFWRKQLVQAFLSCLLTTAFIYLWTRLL
Regarding `Cc1ccc(-n2c(C)cc(/C=N/NC(=O)c3ccncc3)c2C)cc1C`, the displacement is -22.4%.

Regarding `NC(=O)c1ccccc1NC(=O)Cc1ccc(Cl)cc1`, the displacement was -10.9%. To `CCOc1ccc(NC(=O)CSc2nc3ccc(OCC)cc3s2)cc1` belongs 11.9%; to `CCc1ccc2oc(-c3cccc(NC(=O)c4ccc(C)c([N+](=O)[O-])c4)c3)nc2c1`, 3.4%; to `CCOc1ccc(C2/C(=C(\O)c3ccccc3)C(=O)C(=O)N2CCOC)cc1` (stereo not given), -12.5%. Then `C=C(C)CNC(=S)Nc1ccccn1`, with 3.9%; and `COc1ccc(Br)cc1/C=C/C(=O)c1cccs1`, with 1.4%. Then `COc1cc(F)ccc1S(=O)(=O)n1cnc2cc([N+](=O)[O-])ccc21`, with 0.4%. In the case of `Cc1ccc(CNC(=O)CCC(=O)Nc2cc(Cl)ccc2C)cc1`, the displacement was -14.3%. Then `O=C(CCC(=O)OCCCC(F)(F)C(F)(F)F)Nc1ccccc1`, with 13.7%; and `C=CCc1cccc2cc(C(=O)OCC(=O)c3ccccc3)c(=O)oc12`, with 8.3%; and `CCOC(=O)c1ccc(N2NC(=O)/C(=C/c3ccc(Br)cc3)C2=O)cc1`, with -8.5%. To `Cc1ccc(C)c(N2C(=O)C3C(C2=O)C2C=CC3C23CC3)c1` (stereo not given) belongs 7.9%.

Consider `Nc1ccc2nn(-c3ccc(Cl)cc3)nc2c1`, for which the displacement amounted to 11.2%. Turning to `OC(COc1cccc(Cl)c1)Cn1cnc2ccccc21` (stereo not given), the displacement was -4.1%. Then `Cc1ccccc1NC(=O)C(=O)NCc1ccc(F)cc1`, with 1.9%; and `O=C(COc1ccc(Br)cc1)Nc1ccc(N2CCOCC2)c(Cl)c1`, with -4.7%; and `O=C(Nc1ccc(Br)cc1)c1ccc(S(=O)(=O)N2CCCC2)cc1`, with 16.2%. To `CC1=NN(c2ccc(S(N)(=O)=O)cc2)C(=O)/C1=C\c1ccccc1OCc1ccccc1` belongs -2.3%; to `CCOc1ccccc1NC(=O)C1C2C3CCC(C3)C12` (stereo not given), -5.8%. As for `CCN(CC)CCCCOc1ccc(C)cc1Cl`, the displacement is -3.3%. Then `Cc1c(OCC(=O)c2ccc(F)cc2)ccc2c3c(c(=O)oc12)CCCC3`, with -5.8%.

In the case of `COc1ccc(-c2cc(=O)n3[nH]c(-c4cccc(C)c4)cc3n2)cc1`, the displacement is 6.4%. Then `CCOc1cccc(C2C(C(=O)OC)=C(C)N(C)C(C)=C2C(=O)OC)c1`, with -10.1%; and `COc1ccc(/C=C/C(=O)c2cccc(Br)c2)cc1OC`, with -5.8%. To `O=C1CSC(=S)N1/N=C/c1ccc(Cl)cc1Cl` belongs -38.1%.

Turning to `COc1cc(C)c(CNc2cccc(C)c2)cc1C`, the displacement amounted to 10%. Take `COc1ccc(CC(=O)NCC2CCCO2)cc1OC` (stereo not given): the displacement came to 12.7%.

For the molecule `O=C1CCCCC1Oc1ccc2c3c(c(=O)oc2c1)CCC3` (stereo not given), the displacement was -4.5%. On to `CCOC(=O)C1=C(C)NC2=C(C(=O)c3ccccc32)C1c1ccc([N+](=O)[O-])cc1` (stereo not given), for which the displacement is -2.3%. Then `Cc1ccc(C)c(OCC(O)CN2CCC(Cc3ccccc3)CC2)c1` (stereo not given), with -8%; and `COc1cccc(NC(=O)C2C(c3ccccc3)=C2c2ccccc2)c1`, with 0.9%.

Regarding `COc1ccc(-c2nc3ccccc3c(C(=O)N3CCOCC3)c2C)cc1`, the displacement was -3.3%. Then `Cc1ccc(C(=O)c2cccc(NC(=O)/C=C/c3ccco3)c2)cc1C`, with 3.2%. For the molecule `O=C(/C=C/Nc1ccccc1NS(=O)(=O)c1ccccc1)c1ccc2c(c1)OCO2`, the displacement was 7.3%.

On to `CCOc1ccc(N(CC(=O)NC2CCCCC2)S(C)(=O)=O)cc1`, for which the displacement is -9%. To `COC(=O)C1=CN(CCc2ccccc2)C=C(C(=O)OC)C1c1ccc(OC)c(OC)c1` belongs 0%. Then `CCSc1nnc(NC(=O)c2c(OC)cccc2OC)s1`, with -3.7%; and `C=CCN1C(=O)C(Cc2cccc(C)c2)SC1=Nc1ccc(C(=O)O)cc1` (stereo not given), with -10.4%. To `CCOC(=O)c1ccc(N/C(N)=N/c2nc(C(F)(F)F)cc(=O)[nH]2)cc1` belongs -1.2%.

For `COC(=O)c1c(NC(=O)C(F)(F)F)sc(Cc2ccccc2)c1C`, the displacement was -2.8%. To `O=C(O)c1ccc(NS(=O)(=O)c2cccc3cccnc23)cc1O` belongs -4%; to `Cc1cc(C)cc(OCC(=O)N2CCN(c3ccccc3)CC2)c1`, 3.8%; to `O=C(CSc1nnnn1-c1ccccc1)Nc1ccc2nc(SCc3ccccc3)sc2c1`, 2.3%. To `O=C1C(=O)N(CC2CCCO2)C(c2ccc(Br)cc2)/C1=C(/O)c1ccccc1` (stereo not given) belongs -16.7%; to `O=S(=O)(N/N=C/c1ccccc1O)c1ccc(Oc2ccc(S(=O)(=O)N/N=C/c3ccccc3O)cc2)cc1`, 0.5%; to `O=C1C=CC(=O)N1c1ccc(N2CCCCC2)cc1`, 1%. To `O=C(Nc1ccc(Cl)cc1Cl)C1CC(=O)N(c2ccc(Br)cc2)C1` (stereo not given) belongs 10%; to `O=[N+]([O-])c1ccc(Cl)c(-n2ncnc2-c2cccc(Cl)c2)c1`, -5.3%. Turning to `O=C1OC(c2ccccc2I)=N/C1=C\c1cccc([N+](=O)[O-])c1`, the displacement is -4%. Then `O=C(O)c1cccc([N+](=O)[O-])c1C(=O)Nc1nc2ccccc2s1`, with 6.7%; and `O=C(/C=C/c1ccccc1)n1nnc2ccccc21`, with 6.5%. For `O=S(=O)(Oc1ccccc1)c1cc(Cl)ccc1Cl`, the displacement is 10.8%. To `Cc1ccc(C(C)C)c(OCC(=O)N2CCN(c3ccc([N+](=O)[O-])cc3Cl)CC2)c1` belongs 2.7%. As to `CCOc1cc(/C=C2/SC(=S)N(C)C2=O)cc(Cl)c1OCCOc1ccc(Br)cc1`, the displacement amounted to 2.8%. Turning to `CCc1ccccc1NS(=O)(=O)c1ccc(OC)c(OC)c1`, the displacement turned out to be 9%. Then `COC(=O)C1=NNC2C(=O)N(c3ccccc3Br)C(=O)C12` (stereo not given), with 3.1%; and `CC1CCN(Cc2c(O)ccc3ccccc23)CC1`, with 10.1%; and `COc1ccc(C2CC(=O)C3=C(C2)Nc2ccccc2NC3c2ccccc2OC(C)C)cc1` (stereo not given), with -7.7%. Then `COc1ccc(N2C(=O)C3C4C=CC(CC4)C3C2=O)cc1` (stereo not given), with 3.9%; and `CN(C)CCNC(=O)C(c1ccccc1)c1ccccc1`, with 11.4%; and `CCCOc1ccccc1C1C(C(=O)OCC)=C(C)NC2=C1C(=O)CC(c1ccc(Cl)cc1)C2` (stereo not given), with -5.3%.

On to `CCN(CC)c1ccc(C(NC(C)=O)NC(C)=O)cc1`, for which the displacement was found to be 15.6%. Then `O=C(Nc1cc(-c2ccc(F)cc2)[nH]n1)c1cccs1`, with 8.8%; and `COC(=O)c1c(C)oc2ccc(OCc3ccccc3Cl)cc12`, with 9.4%. Then `CC(c1ccco1)N(C(=O)c1ccc([N+](=O)[O-])cc1)c1ccccn1` (stereo not given), with 4.5%; and `O=C1NC(=S)S/C1=C/c1ccc(-c2ccc(C(=O)O)c(Cl)c2)o1`, with -138%; and `CCOC(=O)C(CCOCCOc1c(C)cc(Cl)cc1C)C(=O)OCC`, with -9.7%. Then `O=C(Nc1c[nH]c(=O)[nH]c1=O)c1ccc(Cl)c(Cl)c1`, with 5.6%. For the molecule `CCCC1=C(C(=O)OCC)C(c2ccccc2Cl)NC(=O)N1` (stereo not given), the displacement was 5.6%. To `O=C(Nc1ccc(S(=O)(=O)Nc2ncccn2)cc1)c1cccc(Br)c1` belongs 17.4%.

As for `O=C(O)C(Cc1ccccc1)N=C(NS(=O)(=O)c1ccccc1)c1ccccc1` (stereo not given), the displacement was -2.1%. Then `Cc1ccc(N(CC(=O)NC2CCCC2)S(=O)(=O)c2ccc(F)cc2)cc1`, with 1.4%; and `Cc1cccn2c(=O)c(/C=C3\SC(=S)N(CC4CCCO4)C3=O)c(NCCCn3ccnc3)nc12` (stereo not given), with 3.5%; and `COc1cc(C=C2C(=O)NC(=S)NC2=O)ccc1OCc1ccc(Cl)cc1`, with -4.6%. To `CCN(CC)C(=O)CN(c1cc(Cl)cc(Cl)c1)S(C)(=O)=O` belongs 10%; to `O=C(Nc1ccc2c(c1)OCO2)c1cnn2c1NC(c1cccs1)CC2C(F)(F)F` (stereo not given), 3.6%. `Cc1ccc(C(=O)Nc2ccc(C(N)=O)cc2)cc1[N+](=O)[O-]`: the displacement was found to be 0.4%. To `O=C1C(=C2c3ccccc3C(=O)C2C2c3ccccc3Oc3ccccc32)C(=O)c2ccccc21` (stereo not given) belongs 15%; to `CC(C)Cc1ccc(C(=O)NCC2OCCc3ccccc32)cc1` (stereo not given), -6%. To `COc1ccccc1NC(=O)c1cnn(-c2ccccc2)c1NC(C)=O` belongs -11.2%. To `CCOC(=O)C(=CNc1ccc(O)cc1)C(=O)OCC` belongs -5.8%. For `COc1ccc(/C=C2\C(=O)NC(=O)N(c3cc(C)cc(C)c3)C2=O)cc1I`, the displacement is 9.1%. To `N#C/C(=C\c1ccco1)c1nc(-c2ccccc2)cs1` belongs 58.3%. Take `COC(=O)C1=C(C)N(C)C(C)=C(C(=O)OC)C1c1ccc(F)c(Br)c1`: the displacement was -3.1%. To `Cc1ccc(C(O)(C(=O)NCc2ccccc2)c2ccc(C)cc2)cc1` belongs 1.8%. To `CCOC(=O)C1=C(C)N=c2s/c(=C\c3c(OC)ccc4ccccc34)c(=O)n2C1c1ccc2c(c1)OCO2` (stereo not given) belongs -1.2%. Then `CCCOc1ccc(/C=N/N2CCN(Cc3ccccc3Cl)CC2)cc1`, with 14.3%.

Take `Cc1ccc(-c2ccccc2N)o1`: the displacement is 6.5%.

For the molecule `O=C(CSc1nnc(-c2ccc(Cl)cc2)n1-c1ccccc1)N/N=C/c1ccc([N+](=O)[O-])cc1`, the displacement came out at 1.8%. To `Cc1c(CN(C)C)c2c(n1Cc1ccccc1)C(=O)c1ccccc1-2` belongs 6.2%; to `Cc1ccc(N=Nc2cc(-c3ccccc3)sc2O)c(C)c1`, -6%. As to `C/C(=N\NC(=O)c1ccccn1)c1ccco1`, the displacement was -3.1%. To `CC(=O)N/C(=C\c1ccccc1)C(=O)N1CCCCCC1` belongs -7.3%. For the molecule `CCC(Oc1ccccc1)C(=O)Nc1ccc(Cl)c([N+](=O)[O-])c1` (stereo not given), the displacement was -11.8%. Then `COc1cc(C=NN2CCN(c3ccccn3)CC2)ccc1OCc1ccccc1`, with -10.1%; and `CCc1ccc(/C=C(/NC(C)=O)C(=O)O)s1`, with -5.2%; and `Cc1ccc(N2C(=O)c3cccc4c(C(=O)O)ccc(c34)C2=O)cc1`, with 1.2%. To `COC(=O)c1ccc(Oc2cc(C)nc(-n3nc(C)cc3C)n2)cc1` belongs -5.2%; to `Cc1cccc(OCC(=O)Nc2cccc(C(F)(F)F)c2)c1C`, -5.1%; to `Cc1ccc(C(=O)Nc2cccc(C(F)(F)F)c2)o1`, -1.9%. To `O=C(Nc1cccnc1)c1ccc(-c2ccccc2[N+](=O)[O-])o1` belongs 48.4%; to `CC(=O)CC(C)(C)Nc1ccccc1`, 12.4%.

As for `CC(=O)NNc1nc2c(c(=O)[nH]c(=O)n2C)n1CCc1ccccc1`, the displacement worked out at 11%. To `CCCc1[nH]nc2c1C(C1CCCCC1)C(C#N)=C(N)O2` (stereo not given) belongs -12.1%.

Take `CCc1c(C)sc(NC(=O)Cc2ccc(Cl)cc2)c1C#N`: the displacement was determined as 0.1%. `CN1CCN(CCC(=O)N/N=C/c2cccnc2)CC1`: the displacement is -12.3%. Then `COC(=O)c1ccc(OCC(=O)Nc2nc3c(s2)CCCC3)cc1`, with 2.4%; and `O=C1NC(=S)S/C1=C/c1ccc(Oc2ccc(C(F)(F)F)cc2[N+](=O)[O-])c(Cl)c1`, with 2.8%. Then `COc1ccc(CN2CCN(c3c4c(c(C#N)c5nc6ccccc6n35)CCC4)CC2)cc1`, with -6%.
